# Assay results from PubChem BioAssay (NCATS).
# The list shows a part of the results. Further columns of the screen follow, without active or inactive calls. Compounds called inactive in the main read-out are mostly missing here. The note in brackets gives the kind of curve behind each potency; many fits are weak.
# Test: qHTS Assay for Lipid Storage Modulators (AID 1519)
# Details: Drosophila S3 cells, BODIPY lipid droplet/cell ratio, laser cytometry; measured here: cell count channel max response; cells loaded with oleic acid
# In short: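 Cells seeded at 5,000 per well were treated with compounds over a concentration series and loaded with oleic acid (400 uM, as added). Lipid droplet fluorescence (488 nm excitation, 500-530 nm channel) was read by laser-scanning cytometry and normalized to 20 uM Triacsin C.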
# Tags give direction and shape of the fitted curve.
row,SMILES,max response [%]
1,O=S(=O)(c1ccccc1)N1CCC2(CCCN(Cc3ccccc3)C2)CC1,16.4
2,CN1CCN(c2ncnc3ccc(-c4cccc(C#N)c4)cc23)CC1,16.9
3,O=C(c1ccccc1)c1ccc2n1CCC2C(=O)O (stereo not given),63.3
4,Cc1noc(C)c1-c1nc(Nc2ccc(F)cc2)c2ccccc2n1,32.5
5,COc1ccc(CNc2nc(-c3cccc(C#N)c3)nc3ccccc23)c(OC)c1,32.1
6,COc1cccc(Cn2c(=O)c(CCc3ccccc3)nc3cnc(N4CCN(C)CC4)nc32)c1,25.1
7,Cc1cccc(/C=C\c2ccccc2)n1,84.2
8,O=c1[nH]c2cc([N+](=O)[O-])c([N+](=O)[O-])cc2[nH]c1=O,42.1
9,CCNc1ncc2nc(C)c(=O)n(Cc3cccc(OC)c3)c2n1,28
10,CCNc1ncc2nc(-c3ccc(Cl)cc3)c(=O)n(C)c2n1,39
11,O=c1cc(-c2ccccc2)oc2cccc(O)c12,111
12,C[C@@H]([C@H](O)c1ccc(O)cc1)N1CCC(Cc2ccccc2)CC1,39.2
13,CC(=O)NCCNc1nc(-c2cccc(C#N)c2)nc2ccccc12,33.4
14,CN(C)Cc1ccccc1-c1ccc2ncnc(NC3CCNCC3)c2c1,31
15,COc1cccc(CNc2ccc3nc(-c4ccc(N)cc4)c(OC)n3n2)c1,98.1
16,CN(Cc1ccco1)c1ccnc(-c2cccc(C#N)c2)n1,27.7
17,CN(C)c1ncnc2ccc(-c3ccccc3C(F)(F)F)cc12,17.1
18,CNc1ncnc2c1ncn2[C@H]1C[C@H](OP(=O)(O)O)[C@H](COP(=O)(O)O)O1,33.1
19,COc1ccc(CNc2ncncc2-c2ccc(N(C)C)cc2)c(OC)c1,23.9
20,COc1ncc2nc(-c3cc(F)cc(F)c3)c(=O)n(C[C@H]3CCCO3)c2n1,24.9

row,SMILES,max response [%]
1,COCCn1c(=O)c(-c2ccc(Cl)cc2)nc2cncnc21,27.6
2,CCNc1ncc2nc(-c3cccc(C#N)c3)c(=O)n(Cc3cccc(OC)c3)c2n1,34.8
3,CS(=O)(=O)Nc1cccc(-c2nccc(Nc3ccc(F)cc3)n2)c1,-0.958
4,Cc1ccccc1-c1nccc(Nc2ccc(F)cc2)n1,8.25
5,N#Cc1cccc(-c2nccc(NCc3ccccc3)n2)c1,20.4
6,CC#C[C@]1(O)CC[C@H]2[C@@H]3CCC4=CC(=O)CCC4=C3[C@H](c3ccc(N(C)C)cc3)C[C@@]21C,95.7
7,COc1cc2oc(-c3ccccc3)cc(=O)c2cc1OC,81.8
8,CN(C)c1ncc2nc(-c3ccc(Cl)cc3)c(=O)n(C[C@H]3CCCO3)c2n1,40.6
9,N#Cc1cccc(-c2nc(NCCN3CCOCC3)c3ccccc3n2)c1,9.46
10,CNc1ncncc1-c1ccccc1CN(C)C,36.5
11,O=c1cnc2cnc(Oc3cccc(Cl)c3)nc2n1CCc1ccccc1,32
12,COc1ncc2nc(CCc3ccccc3)c(=O)n(CCc3ccccc3)c2n1,5.42
13,COc1ccc(Oc2ncc3nc(C)c(=O)n(Cc4cccs4)c3n2)cc1,3.32
14,CN1CCc2cccc3c2[C@H]1Cc1ccc(O)c(O)c1-3,80.5
15,N#Cc1cccc(-c2nccc(NCc3cccs3)n2)c1,6.86
16,COc1cc(C)c2c(=O)cc(-c3ccccc3)oc2c1,23.3
17,COc1cc(C(O)C(=O)O)ccc1O (stereo not given),55.8
18,COc1ccc(-c2nc3cnc(N(C)C)nc3n(-c3ccccc3)c2=O)cc1,45.7
19,COCCn1c(=O)c(CCc2ccccc2)nc2cnc(Oc3ccccc3)nc21,30.6
20,Cc1ccc2c(c1)C(=O)[C@@]1(O)CCN(c3ccccc3)C1=N2,79.5

# Same assay, conditions: Drosophila S3 cells, BODIPY lipid droplet/cell ratio, laser cytometry; measured here: cell number channel AC50; cells loaded with oleic acid
row,SMILES,AC50
1,O=S(=O)(c1ccccc1)N1CCC2(CCCN(Cc3ccccc3)C2)CC1,"1260 nM [rising, full curve]"
2,CN1CCN(c2ncnc3ccc(-c4cccc(C#N)c4)cc23)CC1,"891 nM [rising, full curve, poor fit]"
3,O=C(c1ccccc1)c1ccc2n1CCC2C(=O)O (stereo not given),"35500 nM [rising, partial curve, poor fit]"
4,Cc1noc(C)c1-c1nc(Nc2ccc(F)cc2)c2ccccc2n1,"355 nM [rising, full curve]"
5,COc1ccc(CNc2nc(-c3cccc(C#N)c3)nc3ccccc23)c(OC)c1,"39.8 nM [rising, full curve, poor fit]"
6,COc1cccc(Cn2c(=O)c(CCc3ccccc3)nc3cnc(N4CCN(C)CC4)nc32)c1,"708 nM [rising, full curve, poor fit]"
7,Cc1cccc(/C=C\c2ccccc2)n1,"12600 nM [rising, partial curve]"
8,O=c1[nH]c2cc([N+](=O)[O-])c([N+](=O)[O-])cc2[nH]c1=O,"8910 nM [falling, full curve, poor fit]"
9,CCNc1ncc2nc(C)c(=O)n(Cc3cccc(OC)c3)c2n1,"178 nM [rising, full curve, poor fit]"
10,CCNc1ncc2nc(-c3ccc(Cl)cc3)c(=O)n(C)c2n1,"3980 nM [rising, partial curve, poor fit]"
11,O=c1cc(-c2ccccc2)oc2cccc(O)c12,"15800 nM [rising, partial curve]"
12,C[C@@H]([C@H](O)c1ccc(O)cc1)N1CCC(Cc2ccccc2)CC1,"31600 nM [rising, partial curve, poor fit]"
13,CC(=O)NCCNc1nc(-c2cccc(C#N)c2)nc2ccccc12,"355 nM [rising, full curve, poor fit]"
14,CN(C)Cc1ccccc1-c1ccc2ncnc(NC3CCNCC3)c2c1,"39800 nM [rising, single point]"
15,COc1cccc(CNc2ccc3nc(-c4ccc(N)cc4)c(OC)n3n2)c1,"794 nM [rising, full curve]"
16,CN(Cc1ccco1)c1ccnc(-c2cccc(C#N)c2)n1,"3550 nM [rising, partial curve]"
17,CN(C)c1ncnc2ccc(-c3ccccc3C(F)(F)F)cc12,"70.8 nM [rising, full curve]"
18,CNc1ncnc2c1ncn2[C@H]1C[C@H](OP(=O)(O)O)[C@H](COP(=O)(O)O)O1,"31600 nM [rising, single point]"
19,COc1ccc(CNc2ncncc2-c2ccc(N(C)C)cc2)c(OC)c1,"1780 nM [rising, full curve]"
20,COc1ncc2nc(-c3cc(F)cc(F)c3)c(=O)n(C[C@H]3CCCO3)c2n1,"56.2 nM [rising, full curve, poor fit]"

row,SMILES,AC50
1,COCCn1c(=O)c(-c2ccc(Cl)cc2)nc2cncnc21,"100 nM [rising, full curve, poor fit]"
2,CCNc1ncc2nc(-c3cccc(C#N)c3)c(=O)n(Cc3cccc(OC)c3)c2n1,"2820 nM [rising, full curve]"
3,CS(=O)(=O)Nc1cccc(-c2nccc(Nc3ccc(F)cc3)n2)c1,"794 nM [rising, full curve, poor fit]"
4,Cc1ccccc1-c1nccc(Nc2ccc(F)cc2)n1,"3980 nM [rising, partial curve]"
5,N#Cc1cccc(-c2nccc(NCc3ccccc3)n2)c1,"355 nM [rising, full curve, poor fit]"
6,CC#C[C@]1(O)CC[C@H]2[C@@H]3CCC4=CC(=O)CCC4=C3[C@H](c3ccc(N(C)C)cc3)C[C@@]21C,"8910 nM [rising, partial curve]"
7,COc1cc2oc(-c3ccccc3)cc(=O)c2cc1OC,"794 nM [rising, full curve]"
8,CN(C)c1ncc2nc(-c3ccc(Cl)cc3)c(=O)n(C[C@H]3CCCO3)c2n1,"1580 nM [rising, full curve, poor fit]"
9,N#Cc1cccc(-c2nc(NCCN3CCOCC3)c3ccccc3n2)c1,"891 nM [rising, full curve]"
10,CNc1ncncc1-c1ccccc1CN(C)C,"1580 nM [rising, full curve, poor fit]"
11,O=c1cnc2cnc(Oc3cccc(Cl)c3)nc2n1CCc1ccccc1,"5620 nM [rising, full curve, poor fit]"
12,COc1ncc2nc(CCc3ccccc3)c(=O)n(CCc3ccccc3)c2n1,"89.1 nM [rising, full curve, poor fit]"
13,COc1ccc(Oc2ncc3nc(C)c(=O)n(Cc4cccs4)c3n2)cc1,"1410 nM [rising, partial curve]"
14,CN1CCc2cccc3c2[C@H]1Cc1ccc(O)c(O)c1-3,"12600 nM [rising, partial curve, poor fit]"
15,N#Cc1cccc(-c2nccc(NCc3cccs3)n2)c1,"891 nM [rising, full curve, poor fit]"
16,COc1cc(C)c2c(=O)cc(-c3ccccc3)oc2c1,"5010 nM [rising, partial curve]"
17,COc1cc(C(O)C(=O)O)ccc1O (stereo not given),"39800 nM [rising, single point]"
18,COc1ccc(-c2nc3cnc(N(C)C)nc3n(-c3ccccc3)c2=O)cc1,"7080 nM [rising, partial curve, poor fit]"
19,COCCn1c(=O)c(CCc2ccccc2)nc2cnc(Oc3ccccc3)nc21,"2240 nM [rising, full curve, poor fit]"
20,Cc1ccc2c(c1)C(=O)[C@@]1(O)CCN(c3ccccc3)C1=N2,"14100 nM [rising, partial curve, poor fit]"
